Laboratory results: ChEMBL document CHEMBL1201862, “PubChem BioAssay data set” (2004)
Values joined by “and” are separate entries in the source; they are usually repeats but may differ in a detail not shown here. Equal values may be shown once.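 Method: 48-hour compound exposure of cells in 96-well plates, five concentrations, linear interpolation of endpoints. GI50 marks 50% less growth.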 Active and inactive are the calls of the source. Cut-off read from the data, not from the text of the source: active = GI50 up to about 1.1 µM and inactive = higher.

What follows are molecules tested on NCI-H322M (assay: inhibition of tumour cell growth, NCI panel, 48 h).

SMILES	GI50
COc1ccc(/C=C2/SC(c3ccccc3)N(NC(=O)CCCCCCCCC(=O)NN3C(=O)/C(=C\c4ccc(OC)c(OC)c4)SC3c3ccccc3)C2=O)cc1OC (stereo not drawn)	inactive: 74.8 µM
CCOC(=O)c1ccc(C(=O)C(C(C)=O)C(=O)OC(C)(C)C)n1C (stereo not drawn)	inactive: > 100 µM
COc1cc(/C=C2/C[C@H]3[C@@H]4CC=C5C[C@@H](OC(C)=O)CC[C@]5(C)[C@H]4CC[C@]3(C)NC2=O)cc(OC)c1OC	inactive: 27.4 µM
COc1cc(NS(C)(=O)=O)ccc1NCc1c[nH]c2ccc3nc(C)ccc3c12	inactive: > 100 µM
c1cc(CCN2CCCCC2)ccn1	inactive: > 100 µM
CCOC(=O)c1c2c(n(C)c1-c1ccccc1)C(=O)C(C)=CC2=O	inactive: 16 µM
C=CCC1(c2ccc(OC)cc2)C=CC(=O)CC1 (stereo not drawn)	inactive: > 100 µM
CCOC(=O)C(=O)C1C(=O)Nc2ccccc21 (stereo not drawn)	inactive: > 100 µM
CC(=O)OC1COC(n2c(N)c(C#N)c(-c3ccccc3)c(C#N)c2=S)C(OC(C)=O)C1OC(C)=O (stereo not drawn)	inactive: 73.5 µM and inactive: 52.6 µM
O=c1c2ccccc2[nH]c2c(O)ccc(O)c12	inactive: 45.9 µM
O=C1CSC2(CC(/C=C/c3ccccc3)=NN2c2cccc(S(=O)(=O)O)c2)N1c1nc2ccccc2s1 (stereo not drawn)	inactive: 63.2 µM
COc1ccccc1NC(=O)CC(=O)N1N=C(C)C(/N=N/c2ccc(S(N)(=O)=O)cc2)C1=O (stereo not drawn)	inactive: > 100 µM
CCN(CC)/C(=C\Cl)Nc1ccccn1.[O-][Cl+3]([O-])([O-])O	inactive: > 100 µM
COc1ccc(NC(=S)C#N)cc1	inactive: > 100 µM
CC(=O)c1cccc(NC(=O)C(=O)C(C(=O)c2ccccc2F)C2OC(=O)c3ccccc32)c1 (stereo not drawn)	inactive: 33.3 µM
COC(=O)C(=O)OC1(C(C)=O)CC2(c3ccccc3)OC1(c1ccccc1)c1ccccc12 (stereo not drawn)	inactive: 17.3 µM
COC1=CC23CCCN2CCc2cc4c(cc2C3C1O)OCO4 (stereo not drawn)	inactive: 65.2 µM
O=C(Nc1cccc(C(F)(F)F)c1)C(=O)C(C(=O)c1ccc2ccccc2c1)C1OC(=O)c2ccccc21 (stereo not drawn)	inactive: 8.36 µM
N=C1OC(c2ccc3c(c2)OCO3)C(NNS(=O)(=O)c2ccccc2)=C1O (stereo not drawn)	inactive: > 100 µM
C=C(C)[C@@H]1CC[C@@H](C)[C@](O)([C@@H]2C[C@@H]([C@H](COC(=O)c3ccccc3)OC(=O)c3ccccc3)OC2=O)C1	inactive: > 100 µM
Nc1nc2c3nc(Nc4ccccc4)sc3nc(=S)n2c2sc(Nc3ccccc3)nc12	inactive: 40.7 µM
O=CC(O)C(O)C1OC(=O)c2cc(O)c(O)c(O)c2C2=C(O)C(O)=C3OC(=O)c4c(c(O)c(O)c5c4C3C2C(=O)O5)-c2c(cc(O)c(O)c2O)C(=O)OCC1O (stereo not drawn)	inactive: 29.6 µM

SMILES	GI50
COc1cc(OC)cc(-c2nc(O)c3ccccc3n2)c1	inactive: > 100 µM
CC1CCN(CC(=O)N2c3ccccc3Sc3cc4ccccc4cc32)CC1	inactive: > 100 µM
Oc1[nH]c(Nc2cccc(Br)c2)nc2ncnc1-2	inactive: > 100 µM
C=C1C[C@]23CC[C@@H]4C(CO)(CO)CC(=O)C[C@]4(C)[C@@H]2C(O)C[C@H]1C3 (stereo partly drawn)	inactive: > 100 µM
O=C1C2=Nc3ccccc3C(O)(C(=O)O)N2c2ccccc21 (stereo not drawn)	inactive: 22.2 µM
COc1ccccc1C1Nn2c(nc3ccccc3c2=O)N1c1ccc(C)cc1 (stereo not drawn)	inactive: 12.8 µM
Cc1ccc2[nH]c3c4c5ccccc5nc-4c[nH]c3c2c1	inactive: 16.3 µM
CC(N)C(C)c1ccccc1 (stereo not drawn)	inactive: > 100 µM
O=c1[nH]c(=O)n(COCCOCc2ccccc2)cc1Nc1ccccc1	inactive: > 100 µM
Cc1ccc(NC(=O)CC/C(CC(=O)C(C)(C)C)=N/NC(=O)c2cc3ccccc3cc2O)cc1C	inactive: 44.5 µM
[N-]=[N+]=Nc1cc(=O)n(-c2ccccc2)c(=O)n1-c1ccccc1	inactive: > 100 µM
N=C(CC(=O)Nc1ccccn1)c1ccccc1	inactive: > 100 µM
CCCCN(CC)c1nc(C)nc2c1c(C)c(C)n2-c1c(C)cc(C)cc1C [ANTALARMIN]	inactive: 16.9 µM
Cn1c(=O)n2c(-c3ccccc3)c(-c3ccccc3)n2c1=O	inactive: > 100 µM
Cc1cc(N(CCC#N)CCC#N)ccc1C(/N=N/c1ccc(C(=O)O)cc1)=N\NC(=O)c1ccccc1	inactive: 62.1 µM
C[C@]12CCC(=O)C=C1CC[C@@H]1C2CC[C@]2(C)c3nn(-c4ccccc4)nc3CC12 (stereo partly drawn)	inactive: > 100 µM
CC(=O)C(CN(C(C)C)C(C)C)C(c1ccccc1)c1c(O)c2ccccc2oc1=O (stereo not drawn)	inactive: > 100 µM
O=C(O)c1c2c(cc3c1CC1(Cc4cc5c(cc4C1=O)CCC5)C3)CCC2 (stereo not drawn)	inactive: > 100 µM
CCOP(=O)(OCC)C(C)(CC)N/C(=N\C1=NC(C(F)(F)F)(C(F)(F)F)N=C(C(F)(F)F)O1)NC(NC(C)=O)(C(F)(F)F)C(F)(F)F (stereo not drawn)	inactive: 42.4 µM
CNC(=O)c1cc2nc3ccccc3c(=O)n2c2ccccc12	inactive: > 10 µM
Clc1ccc(CSCCc2ccncc2)cc1Cl	inactive: 28.2 µM
CN(N=O)C(=O)Nc1c[nH]c(=O)[nH]c1=O	inactive: > 100 µM

SMILES	GI50
CN1N=C2c3ccccc3CC[C@H]2C1c1ccccc1 (stereo partly drawn)	inactive: 68.9 µM
CCN1c2ccccc2NC(=S)c2c(-c3ccccc3)n[nH]c21	inactive: 62.1 µM
Cn1c(O)c(C(=O)NC2CCCCC2)c(=O)n(C)c1=S	inactive: 7.48 µM
C=CCc1c(C)nc(C)nc1N/N=C/C=C/c1ccccc1	inactive: 51.2 µM
CC1(C)N=c2[nH]cnc2=C(C(N)=O)N1	inactive: > 100 µM
CCC1(c2c(F)c(F)c(N)c(F)c2F)CCC(=O)NC1=O (stereo not drawn)	inactive: > 100 µM
CC(C)=CCC/C(C)=C/CCC1(C)C2COC(=O)C21 (stereo not drawn)	inactive: > 100 µM
[O-]c1c2cc(-[n+]3c(-c4ccccc4)cc(-c4ccccc4)cc3-c3ccccc3)cc1COCCOCCOCCOCCOC2	inactive: 53.8 µM
Clc1ccc(C2=NNC(c3cccc(Cl)c3)C2)cc1 (stereo not drawn)	inactive: 40.5 µM
Nc1nc2ccc(Sc3ccc4nc(N)[nH]c(=O)c4c3)cc2c(=O)[nH]1	inactive: > 100 µM
CNC(=O)OCc1nccc2c(C)c3[nH]c4ccc(OC)cc4c3cc12	inactive: 2.97 µM
CC(C)(N)C(=O)N[C@@H]1C(=O)N2[C@@H]1SC(C)(C)[C@@H]2C(=O)O	inactive: > 100 µM
CSc1nc2c(=O)n(-c3ccccc3)c(=S)n(-c3ccccc3)c2s1	inactive: > 100 µM
C[C@@H]1[C@H](O)CC2=C(CC[C@@H](O)C2(C)C)[C@@]1(CO)CCc1ccoc1	inactive: > 50 µM
Oc1cccc(C2SCc3nc4ccccc4n32)c1 (stereo not drawn)	inactive: > 100 µM
O=C(O)CC(O)(C(=O)O)C(O)C(=O)O (stereo not drawn)	inactive: > 1000 µM
C/C=C/C=C/C=C/C=C/C(=O)O	inactive: > 100 µM
Cc1ccc(C(=O)/C=C/c2ccccc2O)c(C)c1	inactive: > 100 µM
CC(=O)O[C@H]1[C@@H](N2CCCCC2)C[C@H]2[C@@H]3CC=C4C[C@@H](N5CCCC5)CC[C@]4(C)[C@H]3CC[C@@]21C	inactive: > 100 µM
CCC(=O)Nc1ccc(N2C(=O)/C(=C/c3ccc(O)c(OC)c3)N=C2c2ccccc2)cc1	inactive: 17.7 µM
N=C(N)c1ccc(/N=N\c2c(O)c(C(=O)Nc3ccccc3)cc3ccccc23)cc1	inactive: > 100 µM
CC(=O)Nc1ccc(C(=O)NN2C(=O)C(Cl)C2c2ccc(O)cc2)cc1 (stereo not drawn)	inactive: 65 µM

SMILES	GI50
CC12C3CC4C5CC(C(C53)[C@@H]1NCc1ccccc1)C42 (stereo partly drawn)	inactive: > 100 µM
COc1c(/C=C/C=O)cc2c(c1OC)OCO2	inactive: > 100 µM
Cc1ncc([N+](=O)[O-])n1CCN(C)C(=O)CCCn1ccnc1[N+](=O)[O-]	inactive: > 100 µM
COC1/C=C/C(C)C(C(C)C(OC)C(C)CCC(=O)C(C)C(CC(=O)O)OC)OC(=O)/C=C/C=C(\C)CC(OC)CC2=CC(=O)O[C@H](C2)C(C)C(OC)CC(OC)/C=C/C(C)C(OC)C1 (stereo partly drawn)	inactive: 1.75 µM
COc1cc(/C=C2\N=C(c3ccccc3)N(c3nc4c(OC)ccc(OC)c4s3)C2=O)ccc1O	inactive: 81.3 µM
CCOC(=O)C1Oc2ccc([N+](=O)[O-])cc2C1(C)O (stereo not drawn)	inactive: > 100 µM
COC(=O)NC(=O)c1cn(CCCOC(=O)CCCCCCCCC(=O)OCCCn2cc(C(=O)NC(=O)OC)c(=O)[nH]c2=O)c(=O)[nH]c1=O	inactive: > 100 µM
CCOC(=O)/C([O-])=C(\C(=O)OCC)[n+]1c(C)n(C)c2ccccc21	inactive: > 100 µM
O=C(CCc1nnc2s/c(=C\c3ccccc3Cl)c(=O)n12)Nc1cc(Cl)ccc1Cl	inactive: > 100 µM
O=c1c(C(c2ccccc2)c2c(O)oc3cc(O)ccc3c2=O)c(O)oc2cc(O)ccc12	inactive: > 100 µM
C=Cc1cc2c(cc1O)CC[C@@H]1[C@@H]2CC[C@]2(C)[C@@H](O)CC[C@@H]12	inactive: 3.58 µM
COC(=O)C1CCC(=O)N1C(c1cc(OC)c(OC)c(OC)c1)c1cc(OC)c(OC)c(OC)c1 (stereo not drawn)	inactive: > 100 µM
CC(=O)NC1C(OC2C(CO)OC(OCC3OC(n4ccc(N)nc4=O)C(O)C3O)C(NC(C)=O)C2O)OC(CO)C(O)C1O (stereo not drawn)	inactive: > 100 µM
O=c1cc2n(c(=O)[nH]1)C1OC(C(O)C1O)[C@H]2CCO (stereo partly drawn)	inactive: > 100 µM
CC(C)C1OC(=O)C=C1Sc1ccccc1 (stereo not drawn)	inactive: > 100 µM
CCN1CCC(O)(c2ccc(Oc3ccccc3)cc2)C(C(=O)c2ccc(Oc3ccccc3)cc2)C1 (stereo not drawn)	inactive: 13.6 µM
N=C1OC(c2c[nH]c3ccc(OCc4ccccc4)cc23)C(O)=C1O (stereo not drawn)	inactive: > 100 µM
O=C(c1ccc(/N=C/c2ccccc2O)cc1)c1ccc(/N=C/c2ccccc2O)cc1	inactive: > 100 µM
CCOC(=O)/C=C(/CN1C(=O)c2ccccc2C1=O)c1ccccc1	inactive: > 100 µM
O=C1/C(=C/c2ccc(Cl)cc2)CCC1CN1CCOCC1 (stereo not drawn)	inactive: 22.9 µM
O=C1N(c2ccccc2)N=C2c3ccncc3C3=NN(c4ccccc4)C(=O)C123 (stereo not drawn)	inactive: > 100 µM
C=CCNC(=S)N1CC(C)C(=O)Nc2ccccc21 (stereo not drawn)	inactive: > 100 µM
